# Reference: article PMC12136788
# This is one part of the list.
# T1: UNK ZnF1-6 (called full-length) (human, UniProt Q9C0B0 30-357)
# T1 sequence: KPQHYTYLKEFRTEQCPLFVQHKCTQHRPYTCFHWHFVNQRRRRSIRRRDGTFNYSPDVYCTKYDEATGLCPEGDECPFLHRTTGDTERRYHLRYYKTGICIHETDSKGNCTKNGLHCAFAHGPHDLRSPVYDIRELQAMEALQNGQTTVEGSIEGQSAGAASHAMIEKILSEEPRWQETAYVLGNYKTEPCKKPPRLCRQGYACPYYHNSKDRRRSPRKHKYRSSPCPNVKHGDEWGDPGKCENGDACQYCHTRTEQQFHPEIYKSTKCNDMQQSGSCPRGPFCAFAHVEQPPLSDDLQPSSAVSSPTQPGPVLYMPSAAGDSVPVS
# B1: chr4:55870735:55870847:+|CDS|ENSG00000090989|unk|FALSE|bound_elsewhere (ssRNA)
# RNA: GGGAGUUCUACAGUCCGACGAUCGGCAUCUGAAAAACAAGUCAACAUCCUGAUGAAAUUGCUAGAUGAGGCUCUAAAGGAGGUAGAUCAGAUUGAAUUGAAACUGAGCAGUUAUGAGGAAAUGCUCCAAAGUGUAAAAGAACACAACAGAGGAUUGAGCAUCA
# B2: chr17:35273046:35273147:+|3pUTR|ENSG00000166750|unk|FALSE|unique (ssRNA)
# RNA: GGGAGUUCUACAGUCCGACGAUCAUUCCUAAGAGCAGAAGACUGCAAAAUAGUAAAUAUAUACCCAAAAGGGUCUAAUGGAUUAGUUUUUGGCAUAUCAGCACAUGAUAAUACUAUGAAGCCAUAAAAAAGAGAGAUCUCUAUCAACAGAGGAUUGAGCAUCA
# B3: chr13:52036708:52036809:-|3pUTR|ENSG00000197168|unk|total|mutant (ssRNA)
# RNA: GGGAGUUCUACAGUCCGACGAUCGCCGAACUUUUGAAUACCGCCAUUAAUAUUUUUACUUUAAAGUUUCUAUUAAGAAAUCUCCGGCCGGGCAGUCUCAUCACUUUGGGAGGCCAAGGCAGGCAGAUCAUGAGGUCAGGAGUUCAACAGAGGAUUGAGCAUCA
# B4: chr13:37103258:37104242:-|three_prime_utr|ENSG00000180138|control|control|control (ssRNA)
# RNA: GGGAGUUCUACAGUCCGACGAUCAAUGAGGAACAGAAGAAGCAGAGCAGAUGAUUCGAGCAGCAUUUGUUUCUCCCCACAUCUAGAAAUUGUAGUUCAUAUGUACACCAGCUAGUGGCUGUGAACAACCAUUUAGUUGGUGUACAACAGAGGAUUGAGCAUCA
# B5: chr18:58535911:58536012:-|CDS|ENSG00000198796|msi1|FALSE|unique (ssRNA)
# RNA: GGGAGUUCUACAGUCCGACGAUCUCUGACCUGCCCUAAAAUCCUAGAGUCCUCUGUAGAUCCCAUUGAUGAGAUAAGUGUGAUAGAGUACACCAGGGCUGGAAAACCAGAGCCCUCUGAAACCACACCACAGGGCGCCAGAGACAACAGAGGAUUGAGCAUCA
# B6: chr15:31475397:31483293:-|three_prime_utr|ENSG00000169918|control|control|control (ssRNA)
# RNA: GGGAGUUCUACAGUCCGACGAUCUGUACGUGUUUGGUCAAACGUUCCUAAUGGUGCCUGAACCUACACUGACGCCACUCAGGUAGUAGACGGAUAGGAAACAAGUCAUACUGUUGGAAGUGGGUGUGCUAGCCUAGCAUCUGCCAACAGAGGAUUGAGCAUCA
# B7: chr3:142163631:142163732:-|3pUTR|ENSG00000175066|unk|FALSE|unique (ssRNA)
# RNA: GGGAGUUCUACAGUCCGACGAUCCCCAAAGUGCUGGGAUUGCAGCCGUGAACCACUGCACCCAGCCAAUGGGUGUAAUUUCAUAGGAAAUAAUUCUUUUUGUCAGAAUGUACUGAAUUGUAAUAUUAAUACCUGAAAAUUUGUCAACAGAGGAUUGAGCAUCA
# B8: chr5:40945159:40945374:+|CDS|ENSG00000112936|unk|FALSE|unique (ssRNA)
# RNA: GGGAGUUCUACAGUCCGACGAUCGAAUUUUACAAUAGUACUUGGUCUUAUGUAAAACAUACGUCGACAGAACACACAUCAUCUAGUCGGAAGCGCUCCUUUUUUAGAUCUUCAUCAUCUUCUUCACGCAGUUAUACUUCACAUCAACAGAGGAUUGAGCAUCA
# B9: chr7:56063203:56063317:+|3pUTR|ENSG00000146731|unk|total|mutant (ssRNA)
# RNA: GGGAGUUCUACAGUCCGACGAUCCCCAUAUGAAAAAAGGAGAGAACACUGGCAUCUGUUGAAAUUUGGAAGUUCUGAAAUUACCGUAUUUUUAAAAAUUGCACUGAAGUGUAUACACAUAAAGCAGGUCUUUUAUCCAGUGAACAACAGAGGAUUGAGCAUCA
# B10: chr8:41543231:41543332:+|3pUTR|ENSG00000147536|msi1|FALSE|unique (ssRNA)
# RNA: GGGAGUUCUACAGUCCGACGAUCAAACCAUUAUUAAAUUUCCAUUCUGCAGCAGAAGGCACCUCUGGACGGCUCCCGGCUUGUAGUUUAAUGAAGUAUGUGCUCCCUGCUGUUAACCCGCAGCCCUCCCCAACUCUCCAGCAGCAACAGAGGAUUGAGCAUCA
# B11: chr4:173322470:173322571:+|3pUTR|ENSG00000109586|msi1|FALSE|bound_elsewhere (ssRNA)
# RNA: GGGAGUUCUACAGUCCGACGAUCUGUAGCAUUCACUCCCUUACCUACUGGCAUUCCCAGUGCCCUCUGUCCAUACCUACUUCUAGGAUUGCAAAGGAGUCUUCCAACUAGAGAAAAAUUGUCCACUGACAUUUGGGAUUUACUCAACAGAGGAUUGAGCAUCA
# B12: chr16:30351896:30351997:-|3pUTR|ENSG00000169217|unk|FALSE|unique (ssRNA)
# RNA: GGGAGUUCUACAGUCCGACGAUCCUGGCACCCUCCACCUCCACGCCCCACCAGCAUUGCCUUACGCCUCCCUUGCCCCACGUUAGAUGGUUUCUUCCGGUUUUGCACUCUGGCUGCCCCUUGGAGUCUCCUGGGGAGCUGUAACAACAGAGGAUUGAGCAUCA
# B13: chr12:293013:293114:-|CDS|ENSG00000073614|unk|FALSE|bound_elsewhere (ssRNA)
# RNA: GGGAGUUCUACAGUCCGACGAUCACUAAAAGUGAAAGGAAAGGACUCUUCAGAGAAGAAACGGAAACGGAAGCUAGAAAAGGUAGAGCAACUUUUUGGAGAAGGAAAACAGAAGUCCAAGGAGUUAAAGAAAAUGGACAAACCCAACAGAGGAUUGAGCAUCA
# B14: chr10:87753454:87753555:-|3pUTR|ENSG00000138138|msi1|FALSE|bound_elsewhere (ssRNA)
# RNA: GGGAGUUCUACAGUCCGACGAUCCGUUUAAUGUGAAUUAUAUGUGAAUUUUUUUCAAAAUUUUACUAACCAGAAUUCUGUUAUAGGCACCUAACCACGCAGCAUGAGGAAAACGGCACAACACAAUCUUGAGGUGCCUUCUGACAACAGAGGAUUGAGCAUCA
# Biological target: T1, UNK ZnF1-6 (called full-length)
# Assay: nsRBNS (natural sequence RNA bind-n-seq); RBNS binding buffer (assumed for nsRBNS): 25 mM Tris pH 7.5, 150 mM KCl, 3 mM MgCl2, 0.01% Triton X-100, 500 ug/ml BSA, 20 U/ml SUPERase-In, 4 C; UNK is unkempt and MSI1 is Musashi-1; names of the RNAs are library labels; protein concentration not given here; high values mean tight binding
row,Binder,binding signal [enrichment R]
1,B1,0.478
2,B2,2.71
3,B3,2.85
4,B4,1.16
5,B5,0.631
6,B6,0.486
7,B7,0.843
8,B8,2.44
9,B9,0.55
10,B10,11.4
11,B11,1.94
12,B12,0.857
13,B13,0.672
14,B14,0.781
